# Measured values from the supplement of paper PMC8728848.
# This is one part of the list.
# B1: PX9937D-bvu-500-26-500 (Bacteroides vulgatus) (protein)
# chain: DPVSDITDLNYWKTPEQFDSFVFGLHSRFRSHSWNMFLLGEARSDVFGGIPFGGEATQGMERFPYNTLNAENPGISGFGDLYQNINQMNLFISRTLHTDVLTESARNYYLGQVYGLRAYYMYQLYRSWGDVVFTEEPSLGFEVGKLAKAATPAAEIFEQVKKDIESSLSYFGSDYTIKEKKSLWSKAATLMLKADVYLWSAHRDGGEGDARTAKNALVDIQNNISRSNLDLMDTYQGVFAYDNKGNKEIIFTIHNELFEYNLWNGNNDLFPQADYLGKFYNADGTLINTSVENNFGIMRLMVKLENFKKFLPGDTRRDVTLKDVYNKVENGKLELVGVYPHKYWGVMNGSTRVRCDDYPIYRYSDLLLMLAEAKVLLGEDPATEINRVRRRAFGDAYDASTVGFPNQEVDKRPADAVLQERLFEFMLEGKRWYDLRRFGDSYVLDYTPAEPARLLWPINQGALTNNPLLKQTVGY
# Key:
# Experiment in all cases: glycan array binding signal (z-score within array); higher = stronger binding
# Conditions in all cases: glycan notation: IUPAC condensed, linker removed
# [1] = target: Fuc(a1-2)[Gal(a1-4)]Gal(b1-4)GlcNAc
# In short: (§1)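 Negative Z-scores can be read as non-binding. The Z-score is calculated within each array and then averaged across arrays of one protein sequence at different concentrations or buffers and across linkers. Arrays, 3228 in all, were curated from the Consortium for Functional Glycomics database and kept only where the protein sequence was available.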
# [2] = target: Fuc(a1-2)[GalNAc(a1-3)]Gal
# In short: as §1
# [3] = target: Fuc(a1-2)[GalNAc(a1-3)]Gal(b1-3)GalNAc(a1-3)[Fuc(a1-2)]Gal(b1-4)GlcNAc
# In short: as §1
# [4] = target: Fuc(a1-2)[GalNAc(a1-3)]Gal(b1-3)GalNAc(b1-3)Gal(a1-4)Gal(b1-4)Glc
# In short: as §1
# [5] = target: Fuc(a1-2)[GalNAc(a1-3)]Gal(b1-3)GlcNAc
# In short: as §1
# [6] = target: Fuc(a1-2)[GalNAc(a1-3)]Gal(b1-3)GlcNAc(b1-2)Man(a1-3)[Fuc(a1-2)[GalNAc(a1-3)]Gal(b1-3)GlcNAc(b1-2)Man(a1-6)]Man(b1-4)GlcNAc(b1-4)GlcNAc
# In short: as §1
# [7] = target: Fuc(a1-2)[GalNAc(a1-3)]Gal(b1-3)GlcNAc(b1-2)Man(a1-3)[Fuc(a1-2)[GalNAc(a1-3)]Gal(b1-3)GlcNAc(b1-2)Man(a1-6)]Man(b1-4)GlcNAc(b1-4)[Fuc(a1-6)]GlcNAc
# In short: as §1
# [8] = target: Fuc(a1-2)[GalNAc(a1-3)]Gal(b1-3)GlcNAc(b1-3)GalNAc
# In short: as §1
# [9] = target: Fuc(a1-2)[GalNAc(a1-3)]Gal(b1-3)GlcNAc(b1-6)GalNAc
# In short: as §1
# [10] = target: Fuc(a1-2)[GalNAc(a1-3)]Gal(b1-4)Glc
# In short: as §1
# [11] = target: Fuc(a1-2)[GalNAc(a1-3)]Gal(b1-4)GlcNAc
# In short: as §1
# [12] = target: Fuc(a1-2)[GalNAc(a1-3)]Gal(b1-4)GlcNAc(b1-2)Man
# In short: as §1
# [13] = target: Fuc(a1-2)[GalNAc(a1-3)]Gal(b1-4)GlcNAc(b1-2)Man(a1-3)[Fuc(a1-2)[GalNAc(a1-3)]Gal(b1-4)GlcNAc(b1-2)Man(a1-6)]Man(b1-4)GlcNAc(b1-4)GlcNAc
# In short: as §1
# [14] = target: Fuc(a1-2)[GalNAc(a1-3)]Gal(b1-4)GlcNAc(b1-2)Man(a1-3)[Fuc(a1-2)[GalNAc(a1-3)]Gal(b1-4)GlcNAc(b1-2)Man(a1-6)]Man(b1-4)GlcNAc(b1-4)[Fuc(a1-6)]GlcNAc
# In short: as §1
# [15] = target: Fuc(a1-2)[GalNAc(a1-3)]Gal(b1-4)GlcNAc(b1-3)Gal(b1-4)GlcNAc
# In short: as §1
# [16] = target: Fuc(a1-2)[GalNAc(a1-3)]Gal(b1-4)GlcNAc(b1-3)Gal(b1-4)GlcNAc(b1-3)Gal(b1-4)GlcNAc
# In short: as §1
# [17] = target: Fuc(a1-2)[GalNAc(a1-3)]Gal(b1-4)GlcNAc(b1-3)GalNAc
# In short: as §1
# [18] = target: Fuc(a1-2)[GalNAc(a1-3)]Gal(b1-4)GlcNAc(b1-3)[Fuc(a1-2)[GalNAc(a1-3)]Gal(b1-4)GlcNAc(b1-6)]GalNAc
# In short: as §1
# [19] = target: Fuc(a1-2)[GalNAc(a1-3)]Gal(b1-4)GlcNAc(b1-6)GalNAc
# In short: as §1
# [20] = target: Fuc(a1-2)[GalNAc(a1-3)]Gal(b1-4)[Fuc(a1-3)]GlcNAc
# In short: as §1
# [21] = target: Fuc(a1-2)[GalNAc(a1-3)]Gal(b1-4)[Fuc(a1-3)]GlcNAc(b1-3)GalNAc
# In short: as §1
# [22] = target: Fuc(a1-2)[GalNAc(a1-4)]Gal(b1-4)GlcNAc
# In short: as §1
# [23] = target: Fuc(a1-2)[GalNAc(b1-3)]Gal
# In short: as §1
# Fuc(a1-3)GlcNAc = target: Fuc(a1-3)GlcNAc
# In short: as §1
# [24] = target: Fuc(a1-3)[Gal(b1-4)]Glc6S
# In short: as §1
# [25] = target: Fuc(a1-3)[Gal(b1-4)]GlcNAc
# In short: as §1
# [26] = target: Fuc(a1-3)[Gal(b1-4)]GlcNAc(b1-2)Man
# In short: as §1
# [27] = target: Fuc(a1-3)[Gal(b1-4)]GlcNAc(b1-2)Man(a1-3)[Fuc(a1-3)[Gal(b1-4)]GlcNAc(b1-2)Man(a1-6)]Man(b1-4)GlcNAc(b1-4)GlcNAc
# In short: as §1
# [28] = target: Fuc(a1-3)[Gal(b1-4)]GlcNAc(b1-2)Man(a1-3)[Fuc(a1-3)[Gal(b1-4)]GlcNAc(b1-2)Man(a1-6)]Man(b1-4)GlcNAc(b1-4)[Fuc(a1-6)]GlcNAc
# In short: as §1
# [29] = target: Fuc(a1-3)[Gal(b1-4)]GlcNAc(b1-3)Gal(b1-3)[Fuc(a1-4)]GlcNAc
# In short: as §1
# [30] = target: Fuc(a1-3)[Gal(b1-4)]GlcNAc(b1-3)Gal(b1-4)[Fuc(a1-3)]GlcNAc
# In short: as §1
# [31] = target: Fuc(a1-3)[Gal(b1-4)]GlcNAc(b1-3)Gal(b1-4)[Fuc(a1-3)]GlcNAc(b1-3)Gal(b1-4)[Fuc(a1-3)]GlcNAc
# In short: as §1
# [32] = target: Fuc(a1-3)[Gal(b1-4)]GlcNAc(b1-3)GalNAc
# In short: as §1
# [33] = target: Fuc(a1-3)[Gal(b1-4)]GlcNAc(b1-6)GalNAc
# In short: as §1
# [34] = target: Fuc(a1-3)[Gal(b1-4)]GlcNAc(b1-6)[Gal(b1-3)GlcNAc(b1-3)]Gal(b1-4)Glc
# In short: as §1
# [35] = target: Fuc(a1-3)[Gal(b1-4)]GlcNAc6S
# In short: as §1
# [36] = target: Fuc(a1-3)[Gal3S(b1-4)]Glc
# In short: as §1
# [37] = target: Fuc(a1-3)[Gal3S(b1-4)]GlcNAc
# In short: as §1
binder,measurement,setting,value
B1,glycan array binding signal (z-score),[1],0.449
same,glycan array binding signal (z-score),[2],-0.499
same,glycan array binding signal (z-score),[3],-0.504
same,glycan array binding signal (z-score),[4],-0.48
same,glycan array binding signal (z-score),[5],-0.241
same,glycan array binding signal (z-score),[6],0.456
same,glycan array binding signal (z-score),[7],-0.045
same,glycan array binding signal (z-score),[8],-0.145
same,glycan array binding signal (z-score),[9],-0.017
same,glycan array binding signal (z-score),[10],-0.222
same,glycan array binding signal (z-score),[11],-0.267
same,glycan array binding signal (z-score),[12],-0.338
same,glycan array binding signal (z-score),[13],1.86
same,glycan array binding signal (z-score),[14],-0.649
same,glycan array binding signal (z-score),[15],-0.254
same,glycan array binding signal (z-score),[16],2.27
same,glycan array binding signal (z-score),[17],-0.409
same,glycan array binding signal (z-score),[18],-0.338
same,glycan array binding signal (z-score),[19],-0.257
same,glycan array binding signal (z-score),[20],-0.106
same,glycan array binding signal (z-score),[21],-0.371
same,glycan array binding signal (z-score),[22],1.69
same,glycan array binding signal (z-score),[23],-0.447
same,glycan array binding signal (z-score),Fuc(a1-3)GlcNAc,-0.105
same,glycan array binding signal (z-score),[24],0.181
same,glycan array binding signal (z-score),[25],-0.094
same,glycan array binding signal (z-score),[26],-0.17
same,glycan array binding signal (z-score),[27],6.27
same,glycan array binding signal (z-score),[28],0.82
same,glycan array binding signal (z-score),[29],-0.213
same,glycan array binding signal (z-score),[30],-0.296
same,glycan array binding signal (z-score),[31],0.139
same,glycan array binding signal (z-score),[32],-0.063
same,glycan array binding signal (z-score),[33],0.122
same,glycan array binding signal (z-score),[34],-0.353
same,glycan array binding signal (z-score),[35],-0.212
same,glycan array binding signal (z-score),[36],-0.187
same,glycan array binding signal (z-score),[37],-0.286
